The results in this text go back to ChEMBL document CHEMBL1201862, “PubChem BioAssay data set” (2004).

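A five-concentration, 48-hour dose response in 96-well plates underlies each endpoint, interpolated linearly between surrounding concentrations. At the GI50, growth is halved.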 Activity calls are given as the source filed them. Rule as the data show it: active = GI50 up to about 1.1 µM and inactive = higher.

The assay concerns NCI-H322M. Nature of the assay: inhibition of tumour cell growth, NCI panel, 48 h.
For `O=[As](O)(O)c1ccc(Cc2ccc([As](=O)(O)O)cc2)cc1`, the GI50 is inactive: 2.94 µM.

As to `O=C(Cc1ccccc1)NCCc1ccc(O)c(O)c1`, the GI50 was inactive: > 100 µM.

Take `Nc1cccc2nsnc12`: the GI50 was inactive: > 100 µM.

Consider `N=C(N)SCc1cccc(-c2nc3ccccc3c(=O)o2)c1`, for which the GI50 is inactive: > 100 µM.

Take `O=C(O)CCCSc1ccccc1`: the GI50 was inactive: > 100 µM.

For `CC(N/N=C(\S)N1CCN(c2ccccn2)CC1)c1nccc2ccccc12` (stereo unspecified), the GI50 was active: 0.527 µM.

Consider `CC12CCC(=O)C=C1CCC1C2C(O)CC2(C)C(c3csc(N)n3)CCC12.O=S(=O)(O)c1ccc(Br)cc1` (stereo unspecified), for which the GI50 is inactive: > 100 µM.

On to `CCCC/C=C1/CCC(CN(C)C)C1=O` (stereo unspecified), for which the GI50 was inactive: 9.38 µM.

Regarding `CN1CCN(CCCN2c3ccccc3Sc3ccc(C(F)(F)F)cc32)CC1`, the GI50 is inactive: 12.8 µM.

In the case of `CC(C)c1ccc(C(c2c(O)oc3ccccc3c2=O)c2c(O)oc3ccccc3c2=O)cc1`, the GI50 is inactive: 19.1 µM.

Take `Cc1cc(C)c(C)c(-n2[nH]c(=O)n(C)c2=O)c1C`: the GI50 was inactive: > 100 µM.

Turning to `CC(C)(C)/C(=N\Nc1nc2ccccc2[nH]1)c1ccccn1`, the GI50 was inactive: 46.7 µM.

Take `CC(=O)OC1c2ccccc2CCCCCCC12OCCO2` (stereo unspecified): the GI50 is inactive: > 100 µM.

Turning to `O=C(O)C1CCCN1Cc1c[nH]c2ccccc12` (stereo unspecified), the GI50 is inactive: > 100 µM.

`CCOC(=O)c1ccc(Nc2nc3ccc(C(F)(F)F)cc3nc2C(=O)OCC)cc1`: the GI50 is inactive: > 100 µM.

On to `COc1cc([C@H]2c3cc4c(cc3[C@H](NCc3ccc(F)cc3)C3COC(=O)[C@H]32)OCO4)cc(OC)c1O` (stereo partly specified), for which the GI50 is inactive: 37.1 µM.

With `C=C(C)C1Cc2c(cc(O)c3c(=O)c4c(oc23)C(O)Oc2cc(OC)c(OC)cc2-4)O1` (stereo unspecified), the GI50 was inactive: > 10 µM.

Turning to `COc1ncnc2c(NC3OC(CO)C(O)C3O)ncnc12` (stereo unspecified), the GI50 is active: 0.123 µM.

`O=C1SC(c2ccccc2)(c2ccccc2)c2ccccc21`: the GI50 is inactive: > 100 µM.

Consider `O=C(Nc1nc2ncn(CCOC(=O)c3ccccc3)c2c(=S)[nH]1)c1ccccc1`, for which the GI50 was inactive: > 100 µM.

For `CCC(NC1=NCCO1)c1cccs1` (stereo unspecified), the GI50 is inactive: 17.6 µM.

For the compound `C=C(Nc1nc2ccc(C)cc2s1)C(=O)C(CC)C(=O)C(CC)CC1C(=O)NC(=O)NC1=O` (stereo unspecified), the GI50 is inactive: > 100 µM.

Turning to `N#C/C(=C1\OC(=N)C(c2ccccc2)C1=O)c1ccccc1` (stereo unspecified), the GI50 is inactive: > 74.5 µM.

Consider `O=C1OCCC[C@H]2O[C@@H](COCc3ccccc3)C[C@@H]12`, for which the GI50 was inactive: > 100 µM.

For the compound `O=c1c(-c2ccccc2)c2oc(c1-c1ccccc1)CSCc1cccc(c1)CSC2`, the GI50 was inactive: 32 µM.

As to `N#Cc1c(-c2ccc(Cl)cc2)c2c([nH]c1=O)-c1cc([N+](=O)[O-])ccc1CCC2`, the GI50 is inactive: 19.6 µM.

For `Clc1nc(Cl)c(-c2ccccc2)c(Cl)n1`, the GI50 is inactive: 13.5 µM.

For the compound `Cc1ccc(S(=O)(=O)NC(=O)NC(CO)C(=O)O)cc1` (stereo unspecified), the GI50 is inactive: > 100 µM.

In the case of `C=CC(O)C#Cc1cnc(OC)nc1OC` (stereo unspecified), the GI50 is inactive: > 100 µM.

For the compound `CC1=C(/C(C)=N/NS(=O)(=O)c2ccc(C)cc2)Sc2ccccc2N1`, the GI50 was inactive: > 100 µM.

On to `O=c1ccc(=O)c2c1c1[nH]c3ccccc3c1c1c(=O)c3ccccc3c(=O)c21`, for which the GI50 was inactive: > 10 µM.

On to `O=C(CSC(=S)N1CCCCC1)Nc1nc2c(s1)CCCC2`, for which the GI50 was inactive: 79.3 µM.

Take `C[C@]12CC[C@@H]3c4ccc(OCCN5CCCC5)cc4CC[C@H]3[C@@H]1CCC2=O`: the GI50 is inactive: > 100 µM.

As to `CC[C@@]1(O)C(=O)OCc2c1c(Cl)c1n(c2=O)Cc2cc3ccccc3nc2-1`, the GI50 is inactive: 3.72 µM.

In the case of `CC(c1ccc(Br)cc1)C(C(=O)O)C(=O)O` (stereo unspecified), the GI50 is inactive: > 100 µM.

For `C=C(CN(C)C)C(=O)c1ccccc1C`, the GI50 was inactive: > 100 µM.

Take `O=c1cc(-c2ccccc2)[nH]c2ccc(S)cc12`: the GI50 was inactive: 69.3 µM.

Consider `C=CCNC1=C2C[C@@H](C)C[C@@H](OC)[C@@H](OC(=O)CCCN)[C@H](C)/C=C(\C)[C@@H](OC(N)=O)[C@H](OC)/C=C\C=C(/C)C(=O)NC(=CC1=O)C2=O`, for which the GI50 is inactive: 11.5 µM.

As for `CS(=O)(=O)OCCN1CCN(C(=O)c2cccc3c(Nc4ccc(S(=O)(=O)N=C(N)N)cc4)c4ccccc4nc23)CC1`, the GI50 was inactive: > 100 µM.

On to `NCCc1nc(-c2nc(C(=O)O)cs2)cs1`, for which the GI50 is inactive: > 100 µM.

As for `Cc1cc(N(CCCl)CCCl)ccc1/C=N/NC(=O)Cc1cc(=O)oc2cc(O)ccc12`, the GI50 was inactive: 17.1 µM.

As for `O=C(N/C(=C\c1cccc([N+](=O)[O-])c1)c1nc2ccccc2[nH]1)c1ccccc1`, the GI50 was inactive: > 100 µM.

`CC(C)Oc1ccc2c(c1)OCC1Cc3ccccc3OC21` (stereo unspecified): the GI50 is inactive: > 100 µM.

Regarding `CC(=O)N(C(C)=O)n1c(Cc2ccc(Cl)cc2)nn(C(C)=O)c1=O`, the GI50 is inactive: > 100 µM.

For `CCOC1C(Br)Cn2c(=O)c3cc4ccccc4cc3c(=O)n2C1C` (stereo unspecified), the GI50 is inactive: > 100 µM.

For `COc1nc2ncc([C@@H](O)[C@H](O)CO)nc2c(=O)[nH]1`, the GI50 was inactive: > 100 µM.

As to `CC(=O)OCCOCNC(=S)N/N=C/c1ccc(Br)s1`, the GI50 is inactive: > 100 µM.

Take `Cc1ccsc1/C=N/Nc1nncc2ccccc12`: the GI50 was inactive: > 100 µM.

With `COC(=O)C#Cc1ccc([N+](=O)[O-])cc1`, the GI50 is inactive: 3.61 µM.

`N#C/C(=C1\SC(/N=N/c2ccc(Cl)cc2)C(=O)N1c1ccccc1)c1nc2ccccc2[nH]1` (stereo unspecified): the GI50 was inactive: 30.3 µM.

With `CC(=O)n1c2ccc(Br)cc2c2nc3ccccc3nc21`, the GI50 was inactive: > 100 µM.

As to `Cc1ccc2c(c1)Nc1cc(C(F)(F)F)ccc1[PH]2=O` (stereo unspecified), the GI50 was inactive: 63.7 µM.

For the compound `CCCCCc1cc(CCCC)sc1-c1ccco1`, the GI50 was inactive: > 100 µM.

Turning to `O=C1C[C@H]2[C@@H](O1)[C@@H](O)CN1C(=O)c3ccccc3[C@H]21`, the GI50 was inactive: > 100 µM.

`COc1nc2ncc([C@@H](O)[C@H](O)CO)nc2c(=O)n1C`: the GI50 is inactive: > 100 µM.

For `COc1cc2c(cc1OCCCOc1cc(-c3ccc(F)cc3)nc(C)n1)N=C[C@@H]1CCCN1C2=O`, the GI50 is inactive: 26.5 µM.

`CC(=O)Nc1cc2c(s1)CCC1CC(=O)NN=C21` (stereo unspecified): the GI50 was inactive: > 100 µM.

`C=C(CN(C)C)C(=O)c1ccc(C)cc1C`: the GI50 was inactive: 28.2 µM.

On to `CCOC(=O)Nc1[nH]cc(-c2ccccc2)c1C#N`, for which the GI50 is inactive: > 100 µM.

`CCn1c2c(c3ccccc31)C(c1ccccc1)CC1C(=O)N(c3ccccc3)C(=O)C21` (stereo unspecified): the GI50 is inactive: > 100 µM.

Turning to `O=C(O/N=C1/CCCC/C1=C\c1ccccc1)c1ccc(Cl)cc1`, the GI50 is inactive: > 100 µM.

On to `[N-]=[N+]=Nc1nc2ccccc2c(N=[N+]=[N-])c1Cl`, for which the GI50 was inactive: > 100 µM.

For `N#CC1=C(N2CCOCC2)CCC1`, the GI50 is inactive: > 100 µM.

`Cc1cc(O)nc(NNC(C#N)c2ccccc2O)n1` (stereo unspecified): the GI50 was inactive: 5.92 µM.

For the compound `Cc1ccc([S+]([O-])C[C@@]2(C(F)F)NC(=O)NC2=O)cc1` (stereo partly specified), the GI50 is inactive: > 100 µM.

With `O=C(O)c1cccc(S(=O)(=O)NN2C(=O)CSC2c2ccc(Cl)cc2Cl)c1` (stereo unspecified), the GI50 was inactive: > 100 µM.

For the compound `COCOC1C=CCCCC2=CC(C)=C(CC1)O2` (stereo unspecified), the GI50 was inactive: > 100 µM.

On to `O=C(c1c(F)c(F)c(F)c(F)c1F)n1c(=S)n(C(=O)c2c(F)c(F)c(F)c(F)c2F)c2ccccc21`, for which the GI50 was inactive: > 100 µM.

With `CCOc1cc2c(NCCCN(CCO)CCO)ncnc2c(OCC)c1OCC`, the GI50 is inactive: > 100 µM.

Consider `COc1c(OC)c(N)c2cc(C)c(=O)c(C)cc2c1N`, for which the GI50 was inactive: > 100 µM.

As for `C#CCOC(=O)C(N)CCCNC(=N)N` (stereo unspecified), the GI50 is inactive: > 100 µM.

On to `NC(CCc1nc(-c2cccc([N+](=O)[O-])c2)cs1)C(=O)O` (stereo unspecified), for which the GI50 is inactive: > 100 µM.

Regarding `NNC(=O)C(=O)N/N=C(\CCC(=O)Nc1ccc(Cl)cc1)Cc1nc2ccccc2s1`, the GI50 was inactive: > 100 µM.

Consider `Cc1ccc([S+]([O-])C(C)C(Cl)c2ccccc2)cc1` (stereo unspecified), for which the GI50 is inactive: > 100 µM.

As to `Cc1ccc(S(=O)(=O)[C@@H](Cl)[C@H]2N=C(Cl)NN=C2c2ccccc2)cc1`, the GI50 was inactive: 35.2 µM.

On to `Cc1ccc(Oc2ccc(C(=O)c3cccc(C(=O)c4ccc(Oc5ccc(C)cc5)cc4)n3)cc2)cc1`, for which the GI50 was inactive: > 100 µM.

Take `N#C/C(=C/c1ccsc1)C(=O)c1ccccc1`: the GI50 is inactive: > 100 µM.

Regarding `COC(=O)c1cc2c(c3c1CC(Cc1ccccc1)C3=O)CCC2` (stereo unspecified), the GI50 is inactive: 81.3 µM.

Turning to `COc1cc(O)c2c(c1)OCC1(Cc3cc(OC)c(OC)cc31)C2=O` (stereo unspecified), the GI50 was inactive: > 100 µM.

Regarding `N#CC1=C(c2ccccc2)OC2(N)OC(c3ccccc3)=C(C#N)C12C#N` (stereo unspecified), the GI50 was inactive: 55.3 µM.

With `COc1ccc(NC(=O)C(=O)Cc2nc3ccc([N+](=O)[O-])cc3nc2O)c(OC)c1`, the GI50 was inactive: > 100 µM.

For the compound `Oc1nc(-c2cccc(F)c2)nc2ccccc12`, the GI50 was inactive: 43.2 µM.

In the case of `Nc1nc(O)c2ncn(C3OC(CO)C(O)C3O)c2n1` (stereo unspecified), the GI50 is inactive: 69.3 µM.

As to `N/C(=N\N/C=C1\C=Nc2cc(C(F)(F)F)ccc2C1=O)NO`, the GI50 is inactive: 4.66 µM.

Regarding `CC1OC(=O)C(C(C)C)NC(=O)C(C(C)C)OC(=O)C(C(C)C)NC(=O)C(C)OC(=O)C(C(C)C)NC(=O)C(C(C)C)OC(=O)C(C(C)C)NC(=O)C(C)OC(=O)C(C(C)C)NC(=O)C(C(C)C)OC(=O)C(C(C)C)NC1=O` (stereo unspecified), the GI50 is active: 0.0036 µM.

Regarding `O=[N+]([O-])c1oc2ccc3ccccc3c2c1CCO`, the GI50 is inactive: 2.43 µM.
